# Several values for one entry are separate records, joined by “and”; a condition that tells them apart may be missing. Equal entries are not always repeated. Inconclusive results, whose numbers are uncertain, are shown with a selection of clear calls. A potency beside an inconclusive call is a rough fit, not a confirmed value. Activity calls are given as the source filed them. Calls follow the shape of the dose curve; as a rule, active = well fitted curve in the direction sought with a large enough effect; inconclusive = small, poorly fitted or top-dose-only effect, or another doubt; inactive = no such curve, though single readings can be large; an effect the other way counts as inactive or inconclusive.
# Legend:
# [1] = qHTS of pediatric cancer cell lines to identify multiple opportunities for drug repurposing: Primary screen for Saos-2 cells (AID 1347097); also: nearly all actives have a fitted effect of over 40% in size
# Method in brief: (§1)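 Viability was measured as metabolically active cells after 48 hours of treatment, read by CellTiter-Glo luminescence. Compounds were tested at multiple final concentrations, giving concentration-response curves.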
# [2] = qHTS of pediatric cancer cell lines to identify multiple opportunities for drug repurposing: Primary screen for SK-N-SH cells (AID 1347098); details: SK-N-SH viability, CellTiter-Glo luminescence, 48 h; activity change, negative = cytotoxic: at 57 µM (top of the series); also: nearly all actives have a fitted effect of over 65% in size
# Method in brief: (§2)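 Cells (500-1,000/well) rested 5 h, then received compounds for 48 h; metabolically active cells were measured by CellTiter-Glo luminescence. Final concentrations spanned up to 46 µM (MIPE, 11-point) or 0.59 nM-46 µM (NPC, 8-point) in primary screens, 11-point in follow-ups.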
# [3] = qHTS of pediatric cancer cell lines to identify multiple opportunities for drug repurposing: Primary screen for NB1643 cells (AID 1347099); also: nearly all actives have a fitted effect of over 50% in size
# Method in brief: as §1
# [4] = qHTS of pediatric cancer cell lines to identify multiple opportunities for drug repurposing: Primary screen for LAN-5 cells (AID 1347100); details: LAN-5 neuroblastoma viability, CellTiter-Glo luminescence, 48 h; activity change, negative = cytotoxic: at 46 µM (top of the series)
# Method in brief: (§3)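 Viability after 48 h compound treatment at 37C, 500-1,000 cells/well, read as ATP luminescence with CellTiter-Glo. Primary screens used 11-point (MIPE, 0.78 nM-46 µM) or 8-point (NPC, 0.59 nM-46 µM) final concentrations; follow-up screens used 11-point dilutions.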
# [5] = qHTS of pediatric cancer cell lines to identify multiple opportunities for drug repurposing: Primary screen for OHS-50 cells (AID 1347103); also: nearly all actives have a fitted effect of over 40% in size
# Method in brief: as §2
# [6] = qHTS of pediatric cancer cell lines to identify multiple opportunities for drug repurposing: Primary screen for MG 63 (6-TG R) cells (AID 1347105); details: MG 63 (6-TG R) viability, CellTiter-Glo, 48 h; activity change, negative = cytotoxic: at 46 µM (top of the series); also: nearly all actives have a fitted effect of over 50% in size
# Method in brief: as §1
# [7] = qHTS of pediatric cancer cell lines to identify multiple opportunities for drug repurposing: Primary screen for BT-12 cells (AID 1347101); also: nearly all actives have a fitted effect of over 25% in size
# Method in brief: as §2
# [8] = qHTS of pediatric cancer cell lines to identify multiple opportunities for drug repurposing: Primary screen for Rh18 cells (AID 1347102); details: Rh18 rhabdomyosarcoma viability, CellTiter-Glo luminescence, 48 h; activity change, negative = cytotoxic: at 46 µM (top of the series); also: nearly all actives have a fitted effect of over 65% in size
# Method in brief: as §3
# [9] = qHTS of pediatric cancer cell lines to identify multiple opportunities for drug repurposing: Primary screen for RD cells (AID 1347104); also: nearly all actives have a fitted effect of over 55% in size
# Method in brief: as §1
# [10] = qHTS of pediatric cancer cell lines to identify multiple opportunities for drug repurposing: Primary screen for control Hh wild type fibroblast cells (AID 1347106); also: nearly all actives have a fitted effect of over 55% in size
# Method in brief: as §3
# Potency is read from the fitted curve at half-maximal effect; tags tell the direction and shape of the fitted curve.
Compound,Potency [1],Potency [2],Potency [3],Potency [4],Potency [5],Potency [6],Potency [7],Potency [8],Potency [9],Potency [10]
CC(C=CC=C(C)C=CC1=C(C)CCCC1(C)C)=CC=CC=C(C)C=CC=C(C)C=CC1=C(C)CCCC1(C)C,"inconclusive: 26.4 µM [cytotoxic, partial curve]","inconclusive: 24.1 µM [cytotoxic, single point]","inconclusive: 18.7 µM [cytotoxic, partial curve]","inconclusive: 37.2 µM [cytotoxic, single point]","inconclusive: 24.3 µM [cytotoxic, partial curve, poor fit]","inconclusive: 18.7 µM [cytotoxic, single point]",,,,
CO[C@@]12[C@H](COC(N)=O)C3=C(C(=O)C(C)=C(N)C3=O)N1C[C@@H]1N[C@@H]12,"inconclusive: 16.8 µM [cytotoxic, single point]",active: 1.72 µM and active: 8.57 µM,"inconclusive: 1.32 µM [cytotoxic, full curve]",active: 335 nM and active: 1.05 µM,"inconclusive: 2.76 µM [cytotoxic, partial curve, poor fit]","inconclusive: 13.3 µM [cytotoxic, single point] and active: 14.8 µM",active: 3.47 µM and active: 3.06 µM,"inconclusive: 23.7 µM [cytotoxic, single point]",active: 18.8 µM and active: 18.7 µM,
CCOC(=O)[C@H](CCc1ccccc1)N[C@@H](C)C(=O)N1CCCC1C(=O)O (stereo not given in full),inactive,"inconclusive: 30.4 µM [cytotoxic, partial curve]","inconclusive: 16.6 µM [cytotoxic, partial curve]",,,,,,,
C[C@]12C=CC(=O)C=C1CC[C@H]1[C@@H]3C[C@@H](O)[C@](O)(C(=O)CO)[C@@]3(C)C[C@H](O)[C@@]12F,inactive,,,,,,,,,
O=C(CCCN1CCN(c2ccc(F)cc2)CC1)NC1c2ccccc2CSc2ccccc21 (stereo not given),"inconclusive: 9.35 µM [cytotoxic, partial curve]","inconclusive: 19.2 µM [cytotoxic, partial curve]","inconclusive: 6.62 µM [cytotoxic, full curve]","inconclusive: 14.8 µM [cytotoxic, partial curve]",,,"inconclusive: 3.85 µM [cytotoxic, full curve]","inconclusive: 14.8 µM [cytotoxic, partial curve]","inconclusive: 13.2 µM [cytotoxic, partial curve]",
CN(C)CCCN1c2ccccc2Sc2ccc(Cl)cc21,"inconclusive: 33.5 µM [cytotoxic, single point]",active: 6.12 µM,"inconclusive: 23.7 µM [cytotoxic, single point]","inconclusive: 29.9 µM [cytotoxic, single point]",,"inconclusive: 26.6 µM [cytotoxic, single point]","inconclusive: 27.6 µM [cytotoxic, single point]","inconclusive: 15 µM [cytotoxic, single point]","inconclusive: 29.9 µM [cytotoxic, single point]",
COc1c(C)c2c(c(O)c1C/C=C(\C)CCC(=O)O)C(=O)OC2,"inconclusive: 9.44 µM [cytotoxic, partial curve]","inconclusive: 3.86 µM [cytotoxic, partial curve]","inconclusive: 0.237 µM [cytotoxic, full curve]","inconclusive: 29.9 µM [cytotoxic, single point]","inconclusive: 0.276 µM [cytotoxic, full curve]",,active: 0.692 µM,"inconclusive: 2.99 µM [cytotoxic, partial curve, poor fit]","inconclusive: 0.75 µM [cytotoxic, full curve]",
C[C@H](Cn1cnc2c(N)ncnc21)OCP(=O)(O)O,inactive,,,,,,,,,
CCCCOc1cc(C(=O)NCCN(CC)CC)c2ccccc2n1,inactive,"inconclusive: 43.3 µM [cytotoxic, partial curve, poor fit]","inconclusive: 29.9 µM [cytotoxic, partial curve, poor fit]","inconclusive: 33.5 µM [cytotoxic, single point]",inactive,,inactive,inactive,"inconclusive: 29.9 µM [cytotoxic, single point]",
C#Cc1cccc(Nc2ncnc3cc(OCCOC)c(OCCOC)cc23)c1,"inconclusive: 13.3 µM [cytotoxic, single point]","inconclusive: 13.6 µM [cytotoxic, full curve] and inconclusive: 34.4 µM [cytotoxic, single point]","active: 5.9 µM and inconclusive: 23.7 µM [cytotoxic, single point]",,,,"active: 24.3 µM and inconclusive: 9.78 µM [cytotoxic, partial curve]","inconclusive: 13.3 µM [cytotoxic, partial curve]","inconclusive: 5.9 µM [cytotoxic, full curve]","inconclusive: 18.7 µM [cytotoxic, partial curve] and inconclusive: 8.41 µM [cytotoxic, partial curve]"
C[C@@H]1COC(Nc2ccc3ncnc(Nc4ccc(OCc5nccs5)c(Cl)c4)c3c2)=N1,active: 29.6 µM,"inconclusive: 6.07 µM [cytotoxic, partial curve]",active: 4.69 µM,active: 16.6 µM,,"inconclusive: 4.69 µM [cytotoxic, partial curve, poor fit]",,"inconclusive: 16.6 µM [cytotoxic, partial curve]",,"inconclusive: 662 nM [cytotoxic, full curve]"
CC(C)c1nn(-c2c(Cl)cccc2Cl)c2nc(Cc3ccc(OCCO)cc3)[nH]c(=O)c12,"inconclusive: 0.0209 µM [cytotoxic, full curve, poor fit]","inconclusive: 0.108 µM [cytotoxic, full curve]","inconclusive: 0.0083 µM [cytotoxic, full curve]","inconclusive: 0.0166 µM [cytotoxic, full curve, poor fit]",,"inconclusive: 0.059 µM [cytotoxic, full curve]",active: 0.0544 µM,"inconclusive: 0.118 µM [cytotoxic, full curve]",active: 0.132 µM,
COc1cccc2c1C(=O)c1c(O)c3c(c(O)c1C2=O)C[C@@](O)(C(=O)CO)C[C@@H]3O[C@H]1C[C@H](N)[C@H](O)[C@H](C)O1,active: 13.3 µM,active: 0.217 µM,active: 0.473 µM,"inconclusive: 0.0944 µM [cytotoxic, full curve]",,,,,active: 2.37 µM,active: 1680 nM
N=C(N)c1ccc(OCCCCCOc2ccc(C(=N)N)cc2)cc1,"inconclusive: 16.8 µM [cytotoxic, single point] and inconclusive: 18.7 µM [cytotoxic, partial curve]","inconclusive: 27.3 µM [cytotoxic, single point] and active: 9.61 µM","inconclusive: 4.2 nM [cytotoxic, full curve, poor fit] and active: 20.9 µM","inconclusive: 13.3 µM [cytotoxic, partial curve] and inconclusive: 14.8 µM [cytotoxic, partial curve]","inconclusive: 43.7 µM [cytotoxic, single point] and inconclusive: 38.5 µM [cytotoxic, single point]","inconclusive: 23.5 µM [cytotoxic, partial curve, poor fit]",,"inconclusive: 23.7 µM [cytotoxic, single point] and inconclusive: 14.8 µM [cytotoxic, partial curve]","inconclusive: 15 µM [cytotoxic, single point]",
COc1cc2c(cc1OC)-c1cc(=Nc3c(C)cc(C)cc3C)n(C)c(=O)n1CC2,"inconclusive: 26.6 µM [cytotoxic, single point]","inconclusive: 15.4 µM [cytotoxic, partial curve]","inconclusive: 37.6 µM [cytotoxic, partial curve, poor fit]","inconclusive: 29.9 µM [cytotoxic, single point]",active: 21.9 µM,"inconclusive: 0.422 µM [cytotoxic, partial curve, poor fit]","inconclusive: 38.9 µM [cytotoxic, partial curve, poor fit]",,active: 23.7 µM,
O=C(O)CCNc1cc(N2CCc3ccccc3CC2)nc(-c2ccccn2)n1,"inconclusive: 4.18 µM [cytotoxic, partial curve]","inconclusive: 38.3 µM [cytotoxic, single point]",active: 11.8 µM,inactive,,,,,,
CC(=CC(=O)Nc1ccccc1C(=O)O)c1ccc2ccccc2c1,"inconclusive: 20.9 µM [cytotoxic, single point]","inconclusive: 42.9 µM [cytotoxic, single point]","inconclusive: 16.6 µM [cytotoxic, partial curve]",inactive,"inconclusive: 27.3 µM [cytotoxic, single point]",,,,"inconclusive: 29.6 µM [cytotoxic, single point]",
